Laboratory results published in the supplement of paper PMC8728848.
Some of the results follow.

How the values were obtained:
Assay in all cases: glycan array binding signal (z-score within array); higher = stronger binding
Conditions in all cases: glycan notation: IUPAC condensed, linker removed
[1] = biological target: Neu5Ac(a2-3)[GalNAc(b1-4)]Gal(b1-4)GlcNAc(b1-3)GalNAc
Summary of the method: (§1)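 Columns mapping to the same glycan were averaged after glycan names were converted to IUPAC-condensed notation. The data come from 3228 arrays in the Consortium for Functional Glycomics database, limited to those with an available protein sequence. Binding is reported as a within-array Z-score averaged across arrays of one protein sequence and across linkers.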

[2] = biological target: Neu5Ac(a2-3)[Neu5Ac(a2-6)]GalNAc
Summary of the method: as §1

Neu5Ac(a2-6)Gal = biological target: Neu5Ac(a2-6)Gal
Summary of the method: as §1

[3] = biological target: Neu5Ac(a2-6)Gal(b1-3)GlcNAc(b1-3)[Gal(b1-4)GlcNAc(b1-6)]Gal(b1-4)Glc
Summary of the method: as §1

Neu5Ac(a2-6)Gal(b1-4)Glc = biological target: Neu5Ac(a2-6)Gal(b1-4)Glc
Summary of the method: as §1

[4] = biological target: Neu5Ac(a2-6)Gal(b1-4)GlcNAc
Summary of the method: as §1

[5] = biological target: Neu5Ac(a2-6)Gal(b1-4)GlcNAc(b1-2)Man
Summary of the method: as §1

[6] = biological target: Neu5Ac(a2-6)Gal(b1-4)GlcNAc(b1-2)Man(a1-3)Man(b1-4)GlcNAc(b1-4)GlcNAc
Summary of the method: as §1

[7] = biological target: Neu5Ac(a2-6)Gal(b1-4)GlcNAc(b1-2)Man(a1-3)[Gal(b1-4)GlcNAc(b1-2)Man(a1-6)]Man(b1-4)GlcNAc(b1-4)GlcNAc
Summary of the method: as §1

[8] = biological target: Neu5Ac(a2-6)Gal(b1-4)GlcNAc(b1-2)Man(a1-3)[GlcNAc(b1-2)Man(a1-6)]Man(b1-4)GlcNAc(b1-4)GlcNAc
Summary of the method: as §1

[9] = biological target: Neu5Ac(a2-6)Gal(b1-4)GlcNAc(b1-2)Man(a1-3)[GlcNAc(b1-4)][Neu5Ac(a2-6)Gal(b1-4)GlcNAc(b1-2)Man(a1-6)]Man(b1-4)GlcNAc(b1-4)GlcNAc
Summary of the method: as §1

[10] = biological target: Neu5Ac(a2-6)Gal(b1-4)GlcNAc(b1-2)Man(a1-3)[Man(a1-6)]Man(b1-4)GlcNAc(b1-4)GlcNAc
Summary of the method: as §1

[11] = biological target: Neu5Ac(a2-6)Gal(b1-4)GlcNAc(b1-2)Man(a1-3)[Neu5Ac(a2-3)Gal(b1-4)GlcNAc(b1-2)Man(a1-6)]Man(b1-4)GlcNAc(b1-4)GlcNAc
Summary of the method: as §1

[12] = biological target: Neu5Ac(a2-6)Gal(b1-4)GlcNAc(b1-2)Man(a1-3)[Neu5Ac(a2-6)Gal(b1-4)GlcNAc(b1-2)Man(a1-6)]Man(b1-4)GlcNAc(b1-4)GlcNAc
Summary of the method: as §1

[13] = biological target: Neu5Ac(a2-6)Gal(b1-4)GlcNAc(b1-2)Man(a1-3)[Neu5Ac(a2-6)Gal(b1-4)GlcNAc(b1-2)Man(a1-6)]Man(b1-4)GlcNAc(b1-4)[Fuc(a1-6)]GlcNAc
Summary of the method: as §1

[14] = biological target: Neu5Ac(a2-6)Gal(b1-4)GlcNAc(b1-2)Man(a1-6)Man(b1-4)GlcNAc(b1-4)GlcNAc
Summary of the method: as §1

[15] = biological target: Neu5Ac(a2-6)Gal(b1-4)GlcNAc(b1-2)Man(a1-6)[Gal(b1-4)GlcNAc(b1-2)Man(a1-3)]Man(b1-4)GlcNAc(b1-4)GlcNAc
Summary of the method: as §1

[16] = biological target: Neu5Ac(a2-6)Gal(b1-4)GlcNAc(b1-2)Man(a1-6)[GlcNAc(b1-2)Man(a1-3)]Man(b1-4)GlcNAc(b1-4)GlcNAc
Summary of the method: as §1

[17] = biological target: Neu5Ac(a2-6)Gal(b1-4)GlcNAc(b1-2)Man(a1-6)[Man(a1-3)]Man(b1-4)GlcNAc(b1-4)GlcNAc
Summary of the method: as §1

[18] = biological target: Neu5Ac(a2-6)Gal(b1-4)GlcNAc(b1-2)[Neu5Ac(a2-6)Gal(b1-4)GlcNAc(b1-4)]Man(a1-3)[GlcNAc(b1-4)][Neu5Ac(a2-6)Gal(b1-4)GlcNAc(b1-2)[Neu5Ac(a2-6)Gal(b1-4)GlcNAc(b1-6)]Man(a1-6)]Man(b1-4)GlcNAc(b1-4)GlcNAc
Summary of the method: as §1

[19] = biological target: Neu5Ac(a2-6)Gal(b1-4)GlcNAc(b1-2)[Neu5Ac(a2-6)Gal(b1-4)GlcNAc(b1-4)]Man(a1-3)[GlcNAc(b1-4)][Neu5Ac(a2-6)Gal(b1-4)GlcNAc(b1-4)Man(a1-6)]Man(b1-4)GlcNAc(b1-4)GlcNAc
Summary of the method: as §1

[20] = biological target: Neu5Ac(a2-6)Gal(b1-4)GlcNAc(b1-2)[Neu5Ac(a2-6)Gal(b1-4)GlcNAc(b1-6)]Man(a1-6)[Neu5Ac(a2-6)Gal(b1-4)GlcNAc(b1-2)Man(a1-3)][GlcNAc(b1-4)]Man(b1-4)GlcNAc(b1-4)GlcNAc
Summary of the method: as §1

[21] = biological target: Neu5Ac(a2-6)Gal(b1-4)GlcNAc(b1-3)Gal(b1-3)GlcNAc
Summary of the method: as §1

[22] = biological target: Neu5Ac(a2-6)Gal(b1-4)GlcNAc(b1-3)Gal(b1-4)GlcNAc
Summary of the method: as §1

[23] = biological target: Neu5Ac(a2-6)Gal(b1-4)GlcNAc(b1-3)Gal(b1-4)GlcNAc(b1-2)Man(a1-3)[Neu5Ac(a2-6)Gal(b1-4)GlcNAc(b1-3)Gal(b1-4)GlcNAc(b1-2)Man(a1-6)]GalNAc
Summary of the method: as §1

[24] = biological target: Neu5Ac(a2-6)Gal(b1-4)GlcNAc(b1-3)Gal(b1-4)GlcNAc(b1-3)Gal(b1-4)GlcNAc
Summary of the method: as §1

[25] = biological target: Neu5Ac(a2-6)Gal(b1-4)GlcNAc(b1-3)Gal(b1-4)GlcNAc(b1-3)Gal(b1-4)GlcNAc(b1-2)Man(a1-3)[Neu5Ac(a2-6)Gal(b1-4)GlcNAc(b1-3)Gal(b1-4)GlcNAc(b1-3)Gal(b1-4)GlcNAc(b1-2)Man(a1-6)]GalNAc
Summary of the method: as §1

[26] = biological target: Neu5Ac(a2-6)Gal(b1-4)GlcNAc(b1-3)Gal(b1-4)GlcNAc(b1-3)GalNAc
Summary of the method: as §1

[27] = biological target: Neu5Ac(a2-6)Gal(b1-4)GlcNAc(b1-3)Gal(b1-4)GlcNAc(b1-3)[Neu5Ac(a2-6)Gal(b1-4)GlcNAc(b1-3)Gal(b1-4)GlcNAc(b1-6)]GalNAc
Summary of the method: as §1

[28] = biological target: Neu5Ac(a2-6)Gal(b1-4)GlcNAc(b1-3)Gal(b1-4)GlcNAc(b1-6)[Gal(b1-3)]GalNAc
Summary of the method: as §1

[29] = biological target: Neu5Ac(a2-6)Gal(b1-4)GlcNAc(b1-3)Gal(b1-4)[Fuc(a1-3)]GlcNAc(b1-3)Gal(b1-4)[Fuc(a1-3)]GlcNAc
Summary of the method: as §1

[30] = biological target: Neu5Ac(a2-6)Gal(b1-4)GlcNAc(b1-3)GalNAc
Summary of the method: as §1

[31] = biological target: Neu5Ac(a2-6)Gal(b1-4)GlcNAc(b1-3)[Neu5Ac(a2-6)Gal(b1-4)GlcNAc(b1-6)]GalNAc
Summary of the method: as §1

[32] = biological target: Neu5Ac(a2-6)Gal(b1-4)GlcNAc(b1-6)GalNAc
Summary of the method: as §1

[33] = biological target: Neu5Ac(a2-6)Gal(b1-4)GlcNAc(b1-6)[Gal(b1-3)GlcNAc(b1-3)]Gal(b1-4)Glc
Summary of the method: as §1

[34] = biological target: Neu5Ac(a2-6)Gal(b1-4)GlcNAc(b1-6)[Gal(b1-3)]GalNAc
Summary of the method: as §1

[35] = biological target: Neu5Ac(a2-6)Gal(b1-4)GlcNAc6S
Summary of the method: as §1

Neu5Ac(a2-6)GalNAc = biological target: Neu5Ac(a2-6)GalNAc
Summary of the method: as §1

B1: Epa9 (Candida glabrata), CAGL0A01386g (protein)
chain: MGSSHHHHHHSSGLVPRGSHMDITPFAHYPRPEGCSSPPNAVSVGLHMDLYNYPYLYVKNPRTGFTNDTDSDADGETDGDSAGGIEGRAGQCWNPEYQDPNFPRYGYKKYGSFGSSDHVNGKISWDHNEFKEGCKPIMARLPTAYNYPAKITFSNFTMVLSGYFKPKSTGLYKFEIHADDFILFNFGSKNAFECCNREESIDNFGPYVAYAMWPNEADQELEVYLFEDSYYPIRLFYNNRDYHSKFMVGFYPPNTEEITYDFDGYLYMLDDTGNECKDSIRYKTVCDD
- glycan array binding signal (z-score) [1]: -0.443
- glycan array binding signal (z-score) [2]: -0.46
- glycan array binding signal (z-score) (Neu5Ac(a2-6)Gal): -0.398
- glycan array binding signal (z-score) [3]: 0.392
- glycan array binding signal (z-score) (Neu5Ac(a2-6)Gal(b1-4)Glc): -0.436
- glycan array binding signal (z-score) [4]: -0.397
- glycan array binding signal (z-score) [5]: -0.458
- glycan array binding signal (z-score) [6]: -0.392
- glycan array binding signal (z-score) [7]: -0.161
- glycan array binding signal (z-score) [8]: -0.419
- glycan array binding signal (z-score) [9]: -0.416
- glycan array binding signal (z-score) [10]: -0.06
- glycan array binding signal (z-score) [11]: -0.408
- glycan array binding signal (z-score) [12]: -0.324
- glycan array binding signal (z-score) [13]: -0.442
- glycan array binding signal (z-score) [14]: -0.439
- glycan array binding signal (z-score) [15]: 0.222
- glycan array binding signal (z-score) [16]: -0.479
- glycan array binding signal (z-score) [17]: -0.467
- glycan array binding signal (z-score) [18]: -0.367
- glycan array binding signal (z-score) [19]: -0.431
- glycan array binding signal (z-score) [20]: -0.428
- glycan array binding signal (z-score) [21]: -0.133
- glycan array binding signal (z-score) [22]: -0.223
- glycan array binding signal (z-score) [23]: 0.69
- glycan array binding signal (z-score) [24]: 0.022
- glycan array binding signal (z-score) [25]: -0.172
- glycan array binding signal (z-score) [26]: -0.082
- glycan array binding signal (z-score) [27]: -0.112
- glycan array binding signal (z-score) [28]: 0.4
- glycan array binding signal (z-score) [29]: -0.061
- glycan array binding signal (z-score) [30]: -0.035
- glycan array binding signal (z-score) [31]: -0.357
- glycan array binding signal (z-score) [32]: -0.438
- glycan array binding signal (z-score) [33]: -0.304
- glycan array binding signal (z-score) [34]: 0.562
- glycan array binding signal (z-score) [35]: -0.431
- glycan array binding signal (z-score) (Neu5Ac(a2-6)GalNAc): -0.477
